The values that follow come from the supplement of paper PMC12632987.

The chains are these.
B1: GBRAP_52_6050 (protein)
chain: MRERIRAIVEEILAAVKAGKLEEARKLLREVFETLSEEELELFVEEFAELAAKAKPEDFDAVATAVELAEEEAEEAGRPEAFADDLAARVYAALYKAEQA
B2: GBRAP_125_3107 (protein)
chain: EEEELLEDLRLLAKALGFDDEEAEEAARLAREFSVRQTLYAILKAEGEDELADLVEQLTEEQARAALREVAAWLREHPDATREEVVAHLRAVIEALLAAA
B3: GBRAP_125_2978 (protein)
chain: ATPEELEDLRLVALALGLDEEDAAELVRLAAAHSVRGALYALAKALGYEELAAAVEKLTEAEARAVLREVAAWLRAHPDATPEEAAARLLAVAKAALAAA
B4: GBRAP_166_4961 (protein)
chain: AVAEKLAEVEALLERFEREGPSLSPEERREMVVEIAEAIGELRKAGAPEETILELATRLILLAVRAGLPPSFVEAALINIAGLPIDLVDEALERARKELA
B5: GBRAP_184_5081 (protein)
chain: KVYEAEIVAETEEELLAKVDEVLAAAAAQKADLVVLVEAKGLDTELAVKIIEKLGAAKAAGKVPKVTLGFAEEFTEEEVDKIVAAADAAGVNVVLPLKEE
B6: GBRAP_11_2924 (protein)
chain: EKEVLKKIAELAEELAKVLKELIEKGVDDEELWKKAEELLKELTELVKKHADEAEKKLAEIAEELWKEAKEDKENQEKYLKEALAAVAVLAGQFLLKLEE
B7: GBRAP_160_4783 (protein)
chain: SARVARVTAEFAAALAEAAELAEGETAENRANIVDVETGSAILDLIEEGLLNDEEEEVAAAVRDELVAAILANPDLTPEELRALLAAAAARLEAELKALE
B8: GBRAP_11_2741 (protein)
chain: KEEELKEIKKLAEELAELLKELIEEGVDNEELRKKAEEKLKELKEKVKKYGDKDLEKIVEYIEEEWKKALEDPETALEHYQRALGAARVLAGQVELLIEE
B9: GBRAP_11_2785 (protein)
chain: SKELLEKIKKVAEKLAETLKKLLEEGVDDEKLIEEAEKLLEELKKLAKEHPDKNLQKLAEIAEELWKEFLKDKENQEEYLKQLLAAVQVLEGQVLLLLEE
B10: GBRAP_52_5901 (protein)
chain: GEERARKLAEEIVAAIEAGDLEKAVELLVEALLNFSDEEIAILADELRRLLKGKTLEEAEKAAEAAEKAGEIAEKLGADEEKVTLLEDAVETALVEVELA
B11: GBRAP_128_3398 (protein)
chain: SQEELLKKAKELIDKIVEADEEEARKYAEELMELLKKMDLETREEVAKYLEEKLPKLTAEKLEVIADVFRENRPKDDPELANIVADMQVEALNEAVEKEE
B12: GBRAP_160_4417 (protein)
chain: MEVVEEVRELLRETRELVLELVEEGEREQALAAARVGAGEILLYLDEEPRVSEEAEEEVDEVLDELVERLEENRDASPEEVRELLEEAEREVLEILEKHT
B13: GBRAP_184_5190 (protein)
chain: KVLEYEIKAENLEELKKKMEELKKLAKEKKADLYIIVDLPKVTKEMIEALMEALKEIKEKGYSKNIVVELIGEMTEEEIDLALELADEAGVRVTLALDEE
B14: GBRAP_139_3708 (protein)
chain: SALEEKVAEAKELTKETLENPEESIKKIVELLLSVSEEDLEVVVKAIAETLSEFPLDTAEELADKLLEEVKKRSKDEDKVNIVEAVLNGALARKAYEEEL
B15: GBRAP_80_6805 (protein)
chain: AEAELEAALAEIAALDPELAERVREIIEMARAMGVPLETLAEYARAVAALLKVDKEKAAELVEELEELLEEEKAEGNTANAEATLRVFAGQALLEVEELE
B16: GBRAP_74_6558 (protein)
chain: VKEAIDALAAAVRATRVLRAEDLAAALAAATTPEAVEALGRALADVYAALRDQLRFDDPAAVADLLAELIDRLLEIGGDNEVIKTLTDLALDAEAAAAAA
B17: GBRAP_137_3675 (protein)
chain: SKVDITVEEEDGLTYITVKVEDPEKAEEFEEKLIDIAHEVGALAVAIERKEDGSLEVEIVVPEEKKEEALEKVLEVASEADEVNVKTIKDGKVTEEKIEK
B18: GBRAP_160_4597 (protein)
chain: SPETEKLIEEIDEIVEEAKKMIEGQSKEERIAIIKVMMGEILLELSLSPIVSDETEEKADEIADELIETIESNPDLSLEEIKALIEEAREKIIEAIKEDS
B19: GBRAP_39_5672 (protein)
chain: EEEEENENVVSYLEGVAAKYLYETGKSFEEAYEEAKKVLKEYAEKHPELKELLEELIKIAEEKGEEAKDVLIGVAVLIKEGTPDEEIKELIEKAIAYFKS

Over roughly 4,500 sequences, “median log2 fold change of GCK-ALFA target abundance (FLAG IP / Myc IP barcode read proportion)” has its median near 0.078; the lowest 2% begin near -0.6. This is one part of the list.

Sequence of GABARAP, O95166 (O95166 whole entry, the tested form may be a part): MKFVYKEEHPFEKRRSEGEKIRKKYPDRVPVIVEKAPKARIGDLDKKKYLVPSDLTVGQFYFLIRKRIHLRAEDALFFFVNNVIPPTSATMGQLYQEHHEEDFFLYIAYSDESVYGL

The experiment has as its target GABARAP, O95166. The experiment is described as follows: median log2 fold change of GCK-ALFA target abundance (FLAG IP / Myc IP barcode read proportion) (log2 ratio); each designed protein is fused to an ALFA-tag nanobody in HEK293 cells to bring the named protein to FLAG-tagged glucokinase (GCK); Myc marks an untargeted standard; higher = target protein stabilised (more abundant). The conditions noted are these: target protein: 3xFLAG-MCP-GCK-ALFA reporter; HEK293 landing pad (RPLP). An outline of the steps:
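Binders fused to an ALFA nanobody were recombined as a library into HEK293 landing-pad cells, which were induced with 2 μg mL^−1 doxycycline and then transfected to express a FLAG-tagged target and a Myc-tagged standard. After 48 h, circular RNA barcodes recovered by anti-FLAG and anti-Myc immunoprecipitation of lysates were reverse transcribed, amplified and sequenced. Each binder's target abundance is the median log2 ratio of FLAG to Myc barcode read proportions, from barcodes present at ≥10^−7 in both replicates, binders carrying ≥3 barcodes per replicate, a 10^−6 pseudocount and pooled replicates.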
For the molecule B1, the “median log2 fold change” value was found to be 0.111.
Next, B2: -0.067.
For the molecule B3, the “median log2 fold change” value was -0.0819.
As for B4, the figure is 0.165; as for B5, -0.0537; as for B6, 0.214.
Next, B7: -0.255.
As for B8, the “median log2 fold change” value came out at 0.344.
Next, B9: 0.128; B10: 0.0446; B11: -0.0256.
Regarding B12, the “median log2 fold change” value was -0.356.
Next, B13: 0.115; B14: 0.163.
Next, B15: -0.0862; B16: 0.11.
Next, B17: -0.045; B18: -0.0222.
As to B19, the “median log2 fold change” value was determined as 0.309.
